Data: a compilation of properties of binary mixtures (doi:10.1016/j.molliq.2019.111004)
Some of these densities may be calculated back from excess volumes.

Assay: xn = mol fraction of the nth substance listed
Conditions: 100 kPa

CCCn1cc[n+](C)c1.NCCS(=O)(=O)[O-] + O
mass density [kg/m3]
Conditions | 288.15 K | 293.15 K | 298.15 K | 303.15 K | 308.15 K | 313.15 K | 318.15 K | 323.15 K | 328.15 K
x1 = 0.8013 | – | 1213.4 | 1210 | 1206.5 | 1203.4 | 1200.3 | 1197.1 | 1194.3 | 1191.3
x1 = 0.8328 | 1218.6 | 1215 | 1211.5 | 1208.2 | – | 1202 | 1198.8 | 1195.9 | 1192.8
x1 = 0.8634 | – | 1216.7 | 1213.3 | 1209.8 | 1206.7 | 1203.5 | 1200.5 | 1197.6 | –
x1 = 0.8962 | 1221.5 | 1218.1 | 1214.8 | 1211.5 | – | – | 1202.1 | 1199.1 | 1196
x1 = 0.9313 | 1223.1 | 1219.8 | 1216.4 | – | 1210 | 1207.1 | – | 1200.9 | 1197.6
x1 = 1 | 1225.5 | 1222.5 | – | 1216.1 | – | 1209.9 | 1206.8 | 1203.6 | 1200.3

CCCC[n+]1ccn(C)c1.NCCS(=O)(=O)[O-] + O
mass density [kg/m3]
Conditions | 288.15 K | 293.15 K | 298.15 K | 303.15 K | 308.15 K | 313.15 K | 318.15 K | 323.15 K | 328.15 K
x1 = 0.7982 | 1190.8 | – | 1184.5 | 1181.2 | 1178.1 | – | 1171.3 | 1168.5 | 1165.5
x1 = 0.8281 | 1192.2 | 1188.8 | 1185.8 | 1182.4 | 1179.3 | 1175.8 | 1172.5 | 1169.5 | –
x1 = 0.8601 | 1193.5 | 1190.1 | 1187.2 | 1183.8 | 1180.7 | – | 1173.9 | 1170.8 | –
x1 = 0.8945 | 1194.8 | 1191.6 | – | 1185.1 | 1181.9 | 1178.5 | 1174.9 | 1171.8 | 1168.6
x1 = 0.9354 | 1196.3 | 1193.1 | – | – | 1183.2 | 1179.8 | – | 1173 | 1169.8
x1 = 1 | 1198.3 | 1195.2 | 1192 | – | – | – | 1178.3 | 1174.8 | 1171.4
